The whole screen tested about 94,000 compounds, of which about 4,000 (4.3%) were called active. This list was built around the results that the source calls inconclusive (neither active nor inactive); the mix of calls is not that of the screen. The call rests on the fitted dose curve; in most records, active means well fitted inhibition curve with a large enough effect; inconclusive means small, poorly fitted or top-dose-only effect; inactive means no such curve, though single readings can be large or run the other way. Potencies beside an inconclusive call are fits to weak or partial responses and may not hold up.
Assay: Cytotoxic Profiling in NIH 3T3 Cell Line of Diverse Libraries Using Quantitative High-Throughput Screening; further: nearly all actives have a fitted effect of over 55% in size
Conditions: NIH 3T3 viability, CellTiter-Glo ATP luminescence, 48-72 h; series mostly up to 96.7 µM
Summary of the method: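 Mouse fibroblast NIH 3T3 cells, 400 per well, received compound via pintool and were incubated for 48 or 72 hr prior to CellTiter-Glo ATP luminescence measurement.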
In the case of Cc1nc(-c2ccco2)cc([C@H]2CN3CC[C@H]2C[C@@H]3CNCc2ccccc2)n1, the Potency is reported as inconclusive: 100 µM [inhibitor, partial curve, poor fit].
With Cc1cccc(NC(=O)N2[C@H]3CC[C@@H]2c2cnc(-c4ccccc4)nc2C3)c1 the Potency was inconclusive: 50.1 µM [inhibitor, partial curve, poor fit].
With CCOC(=O)[C@H]1CN(C(=O)N2CCOCC2)[C@]2(C)C(=O)N(CC(=O)N(C)C)c3ccccc3[C@H]12 the Potency was “inactive”.
For CC(C)(C)CN1CCC2(COc3ccncc3S(=O)(=O)N2)C1 (stereo unspecified), the Potency was “inactive”.
With O=C(Nc1ccc2n(c1=O)C[C@H]1C[C@@H]2CN(C(=O)Nc2ccccc2)C1)c1ccncc1 the Potency was inconclusive: 112 µM [inhibitor, partial curve, poor fit].
For CC(=O)Nc1ccc(-c2ccc3n(c2=O)C[C@H]2C[C@@H]3CN(C3CCN(C)CC3)C2)cc1, the Potency was inconclusive: 100 µM [inhibitor, partial curve, poor fit].
For CN1CCN(C(=O)Cc2c[nH]c3ncc(-c4ccc(CO)cc4)cc23)CC1, the Potency was active: 25.1 µM.
For Cn1nc(-c2ccc3ccccc3c2)cc1[C@H]1CN2CC[C@H]1C[C@@H]2COC(=O)Nc1cccc(C(F)(F)F)c1, the Potency was inconclusive: 89.1 µM [inhibitor, single point].
With O=C1Nc2ccccc2C12CCN(CC1CCCCC1)CC2 the Potency was “inactive”.
In the case of CCN1CCCN(C(=O)COc2ccccc2)CC12CCOCC2, the Potency is reported as “inactive”.
With CSc1ccc(-c2ccc(=O)n3c2[C@@H]2C[C@@H](CN(S(C)(=O)=O)C2)C3)cc1 the Potency was “inactive”.
For O=C1NCCCCCN(Cc2cccnc2)[C@H]2CCC[C@@H]12, the Potency was inconclusive: 44.7 µM [inhibitor, partial curve, poor fit].
In the case of COc1cc2c(cc1OCC1CC1)NC(=O)C21CCN(C(=O)CCc2cccnc2)CC1, the Potency is reported as inconclusive: 79.4 µM [inhibitor, partial curve].
In the case of c1ccc(CC2CN3CCCC3CN2)cc1 (stereo unspecified), the Potency is reported as “inactive”.
In the case of O=c1ccc(-c2ccccc2)c2n1C[C@H]1C[C@@H]2CN(Cc2ccc(CO)o2)C1, the Potency is reported as “inactive”.
For COc1cc2c(cc1CCc1ccccc1)N(C(=O)c1c[nH]c3ccccc13)CC21CCN(C(C)=O)CC1, the Potency was active: 22.4 µM.
In the case of COc1ccccc1-c1cc([C@H]2CN3CC[C@H]2C[C@@H]3CNC(=O)COc2ccccc2)n(C)n1, the Potency is reported as inconclusive: 89.1 µM [inhibitor, single point].
For CC[C@H]1CN2CC[C@H]1C[C@@H]2CNC(=O)NC(C)C, the Potency was “inactive”.
In the case of Cc1ccc(C)c(S(=O)(=O)N2[C@H]3CC[C@@H]2c2cnc(-c4ccc(F)cc4)nc2C3)c1, the Potency is reported as inconclusive: 39.8 µM [inhibitor, partial curve].
In the case of COc1ccc(CN2CCC3(CC2)C(=O)Nc2ccccc23)cc1, the Potency is reported as “inactive”.
With COc1cc2c(cc1OCc1ccncc1)NC(=O)C21CCN(c2ncc(F)cn2)CC1 the Potency was inconclusive: 44.7 µM [inhibitor, partial curve, poor fit].
With CN1CC[C@H]2CN(c3cc(NCCO)ncn3)C[C@@]2(C(=O)O)C1 the Potency was “inactive”.
In the case of COc1cncc(NC(=O)C2=NO[C@@H]3CN(CC4CC4)C[C@H]23)c1, the Potency is reported as inconclusive: 56.2 µM [inhibitor, partial curve, poor fit].
For Cc1ccc(S(=O)(=O)NC[C@H]2C[C@@H]3CCN2C[C@@H]3c2cc(-c3ccccc3Br)nc(C)n2)cc1, the Potency was inconclusive: 56.2 µM [inhibitor, partial curve, poor fit].
With Cn1nc(-c2ccc3ccccc3c2)cc1[C@H]1CN2CC[C@H]1C[C@@H]2CNC(=O)Nc1ccccc1 the Potency was active: 20 µM.
For CN1CCN(C)c2cc(Nc3ccncc3)ncc2C1, the Potency was inconclusive: 126 µM [inhibitor, single point].
For COc1ccc(-c2cc3c(cc2OC)C2(CCN(C(C)=O)CC2)C(=O)N3)cc1OC, the Potency was inconclusive: 20 µM [inhibitor, partial curve, poor fit].
For CN1Cc2ccccc2-n2ccnc2C12CCN(C(=O)c1ccc(C(F)(F)F)cc1)CC2, the Potency was “inactive”.
With O=C(Nc1ccccc1F)N1[C@H]2CC[C@@H]1c1cncnc1C2 the Potency was “inactive”.
For O=C(NC[C@H]1C[C@@H]2CCN1C[C@@H]2CN1CCN(c2ccccc2)CC1)Nc1ccsc1, the Potency was inconclusive: 25.1 µM [inhibitor, partial curve, poor fit].
In the case of CCCS(=O)(=O)Nc1ccc(=O)n2c1[C@@H]1C[C@@H](CN(S(=O)(=O)c3ccccc3)C1)C2, the Potency is reported as “inactive”.
For O=C(NC1CC1)[C@H]1CN2CCC1C[C@@H]2Cn1cc(C2(O)CCCCC2)nn1 (stereo partly specified), the Potency was “inactive”.
In the case of COc1ccc(CC(=O)N2CCN(Cc3ccccc3-c3ccc(C)c(Cl)c3)CC2)cc1, the Potency is reported as inconclusive: 44.7 µM [inhibitor, partial curve, poor fit].
In the case of COc1cc2c(cc1OCC1CC1)NC(=O)C21CCN(C(=O)C(C)C)CC1, the Potency is reported as inconclusive: 50.1 µM [inhibitor, partial curve, poor fit].
In the case of COc1ccc(C(=O)N2[C@H]3CC[C@@H]2c2cnc(-c4ccc(F)cc4)nc2C3)cc1OC, the Potency is reported as inconclusive: 22.4 µM [inhibitor, partial curve].
For CN1Cc2ccccc2-n2ccnc2C12CCN(C(=O)c1ccc(F)cc1)CC2, the Potency was inconclusive: 50.1 µM [inhibitor, partial curve, poor fit].
For COCC(=O)NC[C@H]1C[C@@H]2CCN1C[C@@H]2c1cc(-c2ccccc2Br)nc(C)n1, the Potency was inconclusive: 50.1 µM [inhibitor, partial curve, poor fit].
With Nc1cccc(-c2cn(C[C@H]3CC4CCN3C[C@@H]4C(=O)Nc3ccccc3)nn2)c1 (stereo partly specified) the Potency was “inactive”.
For COc1cc2c(cc1OCc1ccccc1)N(C(=O)CC(C)C)CC21CCN(C)CC1, the Potency was active: 50.1 µM.
In the case of COc1cc2c(cc1OCc1ccccc1)N(C(=O)CCc1ccccn1)CC21CCN(C)CC1, the Potency is reported as inconclusive: 44.7 µM [inhibitor, partial curve, poor fit].
In the case of Cn1nc(-c2cccs2)cc1[C@H]1CN2CC[C@H]1C[C@@H]2CNS(=O)(=O)c1ccccc1, the Potency is reported as inconclusive: 25.1 µM [inhibitor, full curve, poor fit].
For COc1cc2c(cc1Oc1ccccc1)NC(=O)C21CCN(Cc2nccn2C)CC1, the Potency was inconclusive: 79.4 µM [inhibitor, partial curve].
For COc1ccc(-c2cc([C@H]3CN4CC[C@H]3C[C@@H]4CNC(=O)c3ccc(C)cc3)n(C)n2)cc1, the Potency was inconclusive: 56.2 µM [inhibitor, partial curve, poor fit].
With Cc1ccc2c(n1)N(C)[C@H](CO)CCN(CC(C)C)C2 the Potency was inconclusive: 141 µM [inhibitor, single point].
In the case of O=C(Nc1ccc(=O)n2c1[C@@H]1C[C@@H](CN(S(=O)(=O)c3ccccc3)C1)C2)c1ccccc1, the Potency is reported as inconclusive: 89.1 µM [inhibitor, single point].
In the case of COc1cc2c(cc1-c1cccnc1OC)NC(=O)C21CCN(C(C)=O)CC1, the Potency is reported as inconclusive: 56.2 µM [inhibitor, partial curve, poor fit].
In the case of C=CCN(C)C[C@H]1CN2CC[C@H]1C[C@@H]2CNC(=O)Nc1ccsc1, the Potency is reported as inconclusive: 100 µM [inhibitor, partial curve, poor fit].
With Cn1nc(-c2ccco2)cc1[C@H]1CN2CC[C@H]1C[C@@H]2CNC(=O)c1cccs1 the Potency was “inactive”.
For CCCCc1cn(C[C@H]2C[C@@H]3CCN2C[C@@H]3C(=O)Nc2nccs2)nn1, the Potency was “inactive”.
With O=C(NC1CCCCC1)N1C[C@@H]2C[C@H](C1)c1c(/C=C/c3ccc(Cl)cc3)ccc(=O)n1C2 the Potency was “inactive”.
In the case of COc1cc([C@@H]2c3cc4c(cc3[C@H](O)[C@@H](CO)[C@@H]2C(=O)N2CCCC2)OCO4)cc(OC)c1OC, the Potency is reported as inconclusive: 70.8 µM [inhibitor, single point].
For O=C(Cc1c(F)cccc1Cl)N1[C@H]2CC[C@@H]1c1cnc(-c3ccccc3)nc1C2, the Potency was inconclusive: 44.7 µM [inhibitor, partial curve, poor fit].
With O=C(NC[C@H]1C[C@@H]2CCN1C[C@@H]2CN1CCOCC1)Nc1ccsc1 the Potency was “inactive”.
In the case of Cc1nc(-c2ccccc2Br)cc([C@H]2CN3CC[C@H]2C[C@@H]3CNC(=O)C2CC2)n1, the Potency is reported as inconclusive: 50.1 µM [inhibitor, partial curve, poor fit].
With CC(C)NC(=O)NC[C@H]1C[C@@H]2CCN1C[C@@H]2c1cc(-c2ccc(F)cc2)nn1C the Potency was inconclusive: 112 µM [inhibitor, partial curve].
With CCOC(=O)[C@H]1CN(C(=O)c2ccc(Cl)cc2)[C@]2(C)C(=O)N(C)c3ccccc3[C@H]12 the Potency was “inactive”.
With CN1CCN(C(=O)Cc2c[nH]c3ncc(-c4cccc(Cl)c4)cc23)CC1 the Potency was active: 50.1 µM.
In the case of COc1ccc(S(=O)(=O)N2C[C@@H]3C[C@H](C2)c2ccc(-c4ccccc4C)c(=O)n2C3)cc1, the Potency is reported as “inactive”.
For CCOC(=O)[C@H]1CN(C(=O)c2ccc(Cl)cc2)[C@]2(C)C(=O)N(CCOC)c3ccccc3[C@H]12, the Potency was inconclusive: 44.7 µM [inhibitor, partial curve, poor fit].
For CCCS(=O)(=O)NC[C@H]1C[C@@H]2CCN1C[C@@H]2c1cc(-c2ccccc2Br)nc(C)n1, the Potency was inconclusive: 50.1 µM [inhibitor, partial curve, poor fit].
With COc1cc2c(cc1OCC1CCCC1)N([S+](=O)([O-])c1cccc(C(F)(F)F)c1)CC21CCN(CC(=O)O)CC1 the Potency was active: 39.8 µM.

— PubChem BioAssay AID1345082 (National Center for Advancing Translational Sciences (NCATS), 2018)
Potency means the concentration at half of the fitted maximal effect; tags describe the fitted curve by direction and shape.
